Experimental data taken from PMC12136788.
This is one part of the list.

T1: UNK ZnF1-3 (human, UniProt Q9C0B0 31-174)
T1 sequence: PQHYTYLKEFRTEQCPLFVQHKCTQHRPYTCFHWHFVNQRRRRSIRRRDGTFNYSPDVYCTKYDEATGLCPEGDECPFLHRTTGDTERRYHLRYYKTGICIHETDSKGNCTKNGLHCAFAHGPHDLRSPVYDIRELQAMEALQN

B1: chr15:76912013:76912014:-_ENSMUSG00000033565_ENSMUST00000166610|mus_mus|motif|central (ssRNA)
RNA: GGGAGUUCUACAGUCCGACGAUCGCUCUCAGUGCUCACCCUGAAAUCCAACGACCUUUGCAUAAAAAGCCAACUCCAUCGGGUCUUCCUUGGAAAAGGGCCUGAGGAAGUGGCAUCGGAGAGUGUCCUUGUCCACGCAGCAGACAACAGAGGAUUGAGCAUCA
B2: chr2:157388114:157388115:+_ENSMUSG00000067786_ENSMUST00000109526|mus_hu|FALSE|FALSE (ssRNA)
RNA: GGGAGUUCUACAGUCCGACGAUCUUGUAGAGGUGGUCCCUGUCCUCCAGGAGCUUACAAUCUAGCUGGGGAGACACAACUAAUGCACACUUAAACAAUCAGUACAAUUAGCGAUUACCACAAUAUUGACCACAACUGCAUGAGCAACAGAGGAUUGAGCAUCA
B3: 102547537_102547657_768_3pUTR_ENSMUSG00000020925_ENSMUST00000092569|mouse|control|control (ssRNA)
RNA: GGGAGUUCUACAGUCCGACGAUCGAAAUUUUGGAAAAUACAUUAGUCUCAGUUCUCUUAAAUACACAGACACACAAUUCAUGGGUGGAAGGAGCAGAGUGGGCCAAGGUUAUCGCUUCCGUUCGCCUUUCUGUGUCCUUUUCUCAACAGAGGAUUGAGCAUCA
B4: 102335738_102335858_654_3pUTR_ENSMUSG00000023050_ENSMUST00000169377|mouse|control|control (ssRNA)
RNA: GGGAGUUCUACAGUCCGACGAUCAAAGGCUCUGGGGGAGGCUCUCCACCUGGGGAGGGGCUGGGUCCUCCUCCACCCUGCCCACCGAGAGGCACAACAUCUCGAAGUACACAUUGGGUGGGCGUCAGGUCUUUCUCGGGGGUGCAACAGAGGAUUGAGCAUCA
B5: chr2:120799606:120799607:+_ENSG00000115109_ENST00000263713|hu_hu|FALSE|FALSE (ssRNA)
RNA: GGGAGUUCUACAGUCCGACGAUCGUACAUAAUCUGAUCAAACAACUCUUGUCCUUUGGCUUUUUUUGGCAAGUCCACACUAACAUCAGUACCAUCCAGAAGGGACACCCGACACGUGAUGAUGGACUUAGAAUCUCCAGCUGCCAACAGAGGAUUGAGCAUCA
B6: chr3:176740097:176740098:-_ENSG00000177565_ENST00000430069|hu_mus|hu_hu_hu_mus_True|18_38 (ssRNA)
RNA: GGGAGUUCUACAGUCCGACGAUCUGUUUUGUAUACCACAAAAGGAGGCACUUUCAGUAUCUGCAAAAGGUGUUUAGUCCUAAAACAUACUCACCUAGAGAAUAAUUCAGGAAAACAUCAAUACAAUCUCUAAGACCUACUCCACAACAGAGGAUUGAGCAUCA

target: T1, UNK ZnF1-3; assay: nsRBNS (natural sequence RNA bind-n-seq); RBNS binding buffer (assumed for nsRBNS): 25 mM Tris pH 7.5, 150 mM KCl, 3 mM MgCl2, 0.01% Triton X-100, 500 ug/ml BSA, 20 U/ml SUPERase-In, 4 C; UNK is unkempt and MSI1 is Musashi-1; names of the RNAs are library labels; protein concentration not given here; high values mean tight binding

First: B1
Second: B2
The binding signal of the first is lower: 1.1 enrichment R for the first, 1.6 enrichment R for the second.

First: B3
Second: B4
The binding signal of the first is higher: 0.781 enrichment R for the first, 0.554 enrichment R for the second.

First: B5
Second: B6
The binding signal of the first is higher: 1.12 enrichment R for the first, 0.604 enrichment R for the second.
